These are yes or no findings as the source states them, for the method shown. In cells and extracts the contact can be indirect. Some results given as binding are weak or reduced against the parent protein; the word gives no strength. For part of these data: Where a sequence is shown, tags or fusion partners need not be part of it.

Sequences of proteins named here, by UniProt entry; tags and fusion partners are left off. A change or cut given only in a name is not applied to a line headed by its entry. A line that says so, or that is headed by a name, gives the form on record, which may keep a tag or linker. Residues count along the entry.
UniProt P84022: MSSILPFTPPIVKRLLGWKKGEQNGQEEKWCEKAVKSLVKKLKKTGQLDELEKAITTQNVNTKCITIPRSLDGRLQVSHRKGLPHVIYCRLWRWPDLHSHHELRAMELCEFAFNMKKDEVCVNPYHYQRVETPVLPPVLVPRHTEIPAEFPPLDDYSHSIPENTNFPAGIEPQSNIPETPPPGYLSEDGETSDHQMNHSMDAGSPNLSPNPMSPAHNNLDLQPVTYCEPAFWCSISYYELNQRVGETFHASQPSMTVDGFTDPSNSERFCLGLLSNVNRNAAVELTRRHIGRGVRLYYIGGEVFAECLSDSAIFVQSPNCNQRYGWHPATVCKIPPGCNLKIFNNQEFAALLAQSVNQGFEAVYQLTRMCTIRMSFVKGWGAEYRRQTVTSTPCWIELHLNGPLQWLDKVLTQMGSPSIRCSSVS
UniProt P05556: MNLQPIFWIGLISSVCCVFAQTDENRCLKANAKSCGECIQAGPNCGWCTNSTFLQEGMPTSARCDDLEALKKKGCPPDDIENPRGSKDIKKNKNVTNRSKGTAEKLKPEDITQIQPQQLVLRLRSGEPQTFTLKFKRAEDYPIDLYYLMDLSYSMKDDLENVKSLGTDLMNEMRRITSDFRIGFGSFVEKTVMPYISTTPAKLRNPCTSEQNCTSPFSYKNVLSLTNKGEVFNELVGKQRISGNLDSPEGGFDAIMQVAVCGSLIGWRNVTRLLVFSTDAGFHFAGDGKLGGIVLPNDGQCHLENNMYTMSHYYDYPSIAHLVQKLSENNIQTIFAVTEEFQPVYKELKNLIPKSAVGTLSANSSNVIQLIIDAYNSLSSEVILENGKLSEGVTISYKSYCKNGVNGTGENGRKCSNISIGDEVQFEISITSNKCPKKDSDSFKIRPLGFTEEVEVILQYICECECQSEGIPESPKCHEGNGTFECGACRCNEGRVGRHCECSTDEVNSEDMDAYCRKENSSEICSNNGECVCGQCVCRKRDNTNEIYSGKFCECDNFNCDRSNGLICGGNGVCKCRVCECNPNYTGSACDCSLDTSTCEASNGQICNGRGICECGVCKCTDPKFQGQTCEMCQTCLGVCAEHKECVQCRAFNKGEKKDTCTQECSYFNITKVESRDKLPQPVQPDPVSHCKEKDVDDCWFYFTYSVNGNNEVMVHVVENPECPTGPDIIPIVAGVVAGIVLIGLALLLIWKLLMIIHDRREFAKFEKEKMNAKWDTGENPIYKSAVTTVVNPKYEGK
ITGB1 mutant (ITGB1 M) with the deletion of amino acids 130–240 (P05556, form named): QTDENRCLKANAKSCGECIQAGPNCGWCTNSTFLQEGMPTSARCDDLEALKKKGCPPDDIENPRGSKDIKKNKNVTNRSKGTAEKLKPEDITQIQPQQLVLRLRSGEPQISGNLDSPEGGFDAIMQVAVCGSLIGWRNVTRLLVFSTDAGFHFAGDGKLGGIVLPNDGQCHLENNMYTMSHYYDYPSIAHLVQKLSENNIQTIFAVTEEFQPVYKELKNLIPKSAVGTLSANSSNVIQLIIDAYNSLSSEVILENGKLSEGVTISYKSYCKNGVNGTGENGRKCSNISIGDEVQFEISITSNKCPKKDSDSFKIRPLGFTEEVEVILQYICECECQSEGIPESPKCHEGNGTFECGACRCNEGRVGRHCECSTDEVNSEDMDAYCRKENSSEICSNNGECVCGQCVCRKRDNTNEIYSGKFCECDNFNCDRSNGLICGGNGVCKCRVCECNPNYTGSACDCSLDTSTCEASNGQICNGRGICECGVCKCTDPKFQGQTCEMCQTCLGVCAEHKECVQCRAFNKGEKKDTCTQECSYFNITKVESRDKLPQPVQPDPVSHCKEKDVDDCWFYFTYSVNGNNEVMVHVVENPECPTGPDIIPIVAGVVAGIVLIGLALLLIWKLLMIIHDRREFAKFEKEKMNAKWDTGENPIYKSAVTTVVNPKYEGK
UniProt P08648: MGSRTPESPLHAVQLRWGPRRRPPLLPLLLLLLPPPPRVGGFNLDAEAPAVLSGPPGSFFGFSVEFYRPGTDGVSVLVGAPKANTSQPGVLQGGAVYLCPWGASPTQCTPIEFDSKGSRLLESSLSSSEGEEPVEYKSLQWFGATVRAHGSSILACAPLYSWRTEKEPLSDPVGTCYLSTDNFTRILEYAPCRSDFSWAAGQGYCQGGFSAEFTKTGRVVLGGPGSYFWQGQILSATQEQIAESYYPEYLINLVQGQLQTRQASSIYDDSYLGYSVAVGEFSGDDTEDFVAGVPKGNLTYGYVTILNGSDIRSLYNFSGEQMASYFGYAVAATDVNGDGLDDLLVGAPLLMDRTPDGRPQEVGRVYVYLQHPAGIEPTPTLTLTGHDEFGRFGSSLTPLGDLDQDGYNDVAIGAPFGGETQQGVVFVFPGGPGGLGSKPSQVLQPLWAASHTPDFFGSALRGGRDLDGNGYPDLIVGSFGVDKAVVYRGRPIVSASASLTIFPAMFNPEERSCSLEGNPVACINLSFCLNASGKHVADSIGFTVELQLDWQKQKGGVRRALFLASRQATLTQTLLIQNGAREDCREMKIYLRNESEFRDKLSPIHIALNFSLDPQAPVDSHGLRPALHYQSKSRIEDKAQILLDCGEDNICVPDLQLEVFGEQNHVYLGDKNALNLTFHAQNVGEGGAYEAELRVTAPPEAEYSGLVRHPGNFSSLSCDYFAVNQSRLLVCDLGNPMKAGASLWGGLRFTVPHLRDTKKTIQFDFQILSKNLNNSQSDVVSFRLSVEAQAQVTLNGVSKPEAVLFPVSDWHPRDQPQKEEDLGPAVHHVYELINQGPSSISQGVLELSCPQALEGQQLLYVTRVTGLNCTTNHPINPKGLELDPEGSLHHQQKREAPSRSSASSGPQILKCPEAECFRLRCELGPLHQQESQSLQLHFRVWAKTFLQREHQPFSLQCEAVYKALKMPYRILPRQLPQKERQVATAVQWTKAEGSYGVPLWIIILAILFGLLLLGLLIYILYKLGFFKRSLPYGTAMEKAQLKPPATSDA
Flag-ITGA5: residues 42-1049 of P08648
ITGA5 extracellular domain (truncation mutant construct): residues 42-995 of P08648
UniProt Q86U44: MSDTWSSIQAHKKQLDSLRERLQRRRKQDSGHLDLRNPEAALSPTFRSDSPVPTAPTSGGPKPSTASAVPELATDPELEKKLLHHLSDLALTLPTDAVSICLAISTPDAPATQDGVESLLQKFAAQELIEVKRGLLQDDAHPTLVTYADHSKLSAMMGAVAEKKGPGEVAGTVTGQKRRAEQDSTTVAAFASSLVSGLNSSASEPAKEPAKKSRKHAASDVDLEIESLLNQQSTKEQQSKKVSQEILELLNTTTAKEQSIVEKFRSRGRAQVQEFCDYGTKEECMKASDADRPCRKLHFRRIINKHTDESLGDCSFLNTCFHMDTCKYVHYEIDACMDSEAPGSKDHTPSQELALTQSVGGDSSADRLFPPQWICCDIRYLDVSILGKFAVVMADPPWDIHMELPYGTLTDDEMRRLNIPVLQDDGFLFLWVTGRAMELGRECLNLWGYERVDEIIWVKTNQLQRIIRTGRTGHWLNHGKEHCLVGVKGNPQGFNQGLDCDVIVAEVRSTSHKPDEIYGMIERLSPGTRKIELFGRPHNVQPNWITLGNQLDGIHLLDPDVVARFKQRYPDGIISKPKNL

Experiment [1] addresses SMAD3 (endogenous) (human (endogenous in MHCC97H)) (UniProt P84022). The experiment can be described thus: co-IP; endogenous SMAD3 and METTL3 in MHCC97H cells, with or without TGF-β for 12 h.
Experiment [2] concerns the target Flag-SMAD3 (UniProt P84022). Nature of the experiment: co-IP; Flag-SMAD3 and HA-METTL3 in MHCC97H cells; with or without TGF-β for 12 h; with galunisertib for 12 h.
Experiment [3] deals with Flag-ITGB1 (UniProt P05556). The experiment can be described thus: co-IP; IP of ITIH1+ITGB1 in 293T cells with FN1 added in a concentration gradient.
In experiment [4] the target is Flag-ITGB1 (UniProt P05556). Nature of the experiment: co-IP; HA-ITIH1 with Flag-ITGA5, Flag-ITGB1, their truncation constructs or the ITGB1 deletion mutant in 293T cells.
Experiment [5] concerns the target Flag-ITGA5 (UniProt P08648). The experiment is described as above.
Experiment [6] deals with ITGB1 mutant (ITGB1 M) with the deletion of amino acids 130–240 (UniProt P05556). Described as above.
The target in experiment [7] is ITGA5 extracellular domain (truncation mutant construct) (UniProt P08648). The experiment is described as above.
The target of experiment [8] is ITGB1 extracellular domain (truncation mutant construct) (UniProt P05556). Described as above.
The target in experiment [9] is Flag-ITGB1 (UniProt P05556). The experiment can be described thus: co-IP; IP of ITGB1+FN1 in 293T cells with r-ITIH1 added in a concentration gradient; purified r-ITIH1 as the competitor on ITGB1; only the binder purified.

With “METTL3 (endogenous) (from UniProt Q86U44 1-580)”, in [1], the binding result is “binds”.
Consider HA-METTL3 (from UniProt Q86U44 1-580), for which the binding entry in [2] is listed as “binds”.

B1: HA-ITIH1 (protein, UniProt P19827 35-672)
chain: SKSSEKRQAVDTAVDGVFIRSLKVNCKVTSRFAHYVVTSQVVNTANEAREVAFDLEIPKTAFISDFAVTADGNAFIGDIKDKVTAWKQYRKAAISGENAGLVRASGRTMEQFTIHLTVNPQSKVTFQLTYEEVLKRNHMQYEIVIKVKPKQLVHHFEIDVDIFEPQGISKLDAQASFLPKELAAQTIKKSFSGKKGHVLFRPTVSQQQSCPTCSTSLLNGHFKVTYDVSRDKICDLLVANNHFAHFFAPQNLTNMNKNVVFVIDISGSMRGQKVKQTKEALLKILGDMQPGDYFDLVLFGTRVQSWKGSLVQASEANLQAAQDFVRGFSLDEATNLNGGLLRGIEILNQVQESLPELSNHASILIMLTDGDPTEGVTDRSQILKNVRNAIRGRFPLYNLGFGHNVDFNFLEVMSMENNGRAQRIYEDHDATQQLQGFYSQVAKPLLVDVDLQYPQDAVLALTQNHHKQYYEGSEIVVAGRIADNKQSSFKADVQAHGEGQEFSITCLVDEEEMKKLLRERGHMLENHVERLWAYLTIQELLAKRMKVDREERANLSSQALQMSLDYGFVTPLTSMSIRGMADQDGLKPTIDKPSEDSPPLEMLGPRRTFVLSALQPSPTHSSSNTQRLPDRVTGVDTD
B1: the binding entry is recorded as “binds” in [3]; “binds” in [4]; “binds” in [5]; “no binding” in experiment [6]; “binds” in [7]; “binds” in experiment [8].

B2: ITIH1-Fc recombinant protein (Fc fusion, UniProt P19827 35-672)
chain: B1 chain
As for B2, the binding result in [9] is reported as “binds”.
